Source: the supplement of paper PMC3334620
In all, about 33,000 sequences were measured (“E-score (-0.5 to 0.5)”: median about -0.012, highest 2% from about 0.29 on). This is one part of the list.

biological target: T1, Ybr033w (UniProt P38073); assay: PBM E-score (8-mer binding enrichment) (E-score (-0.5 to 0.5)); higher = stronger / more preferred TF binding; most listed sequences are background and not binding sites; conditions: protein concentration: 200 nM; construct: GST-full length
T1 sequence: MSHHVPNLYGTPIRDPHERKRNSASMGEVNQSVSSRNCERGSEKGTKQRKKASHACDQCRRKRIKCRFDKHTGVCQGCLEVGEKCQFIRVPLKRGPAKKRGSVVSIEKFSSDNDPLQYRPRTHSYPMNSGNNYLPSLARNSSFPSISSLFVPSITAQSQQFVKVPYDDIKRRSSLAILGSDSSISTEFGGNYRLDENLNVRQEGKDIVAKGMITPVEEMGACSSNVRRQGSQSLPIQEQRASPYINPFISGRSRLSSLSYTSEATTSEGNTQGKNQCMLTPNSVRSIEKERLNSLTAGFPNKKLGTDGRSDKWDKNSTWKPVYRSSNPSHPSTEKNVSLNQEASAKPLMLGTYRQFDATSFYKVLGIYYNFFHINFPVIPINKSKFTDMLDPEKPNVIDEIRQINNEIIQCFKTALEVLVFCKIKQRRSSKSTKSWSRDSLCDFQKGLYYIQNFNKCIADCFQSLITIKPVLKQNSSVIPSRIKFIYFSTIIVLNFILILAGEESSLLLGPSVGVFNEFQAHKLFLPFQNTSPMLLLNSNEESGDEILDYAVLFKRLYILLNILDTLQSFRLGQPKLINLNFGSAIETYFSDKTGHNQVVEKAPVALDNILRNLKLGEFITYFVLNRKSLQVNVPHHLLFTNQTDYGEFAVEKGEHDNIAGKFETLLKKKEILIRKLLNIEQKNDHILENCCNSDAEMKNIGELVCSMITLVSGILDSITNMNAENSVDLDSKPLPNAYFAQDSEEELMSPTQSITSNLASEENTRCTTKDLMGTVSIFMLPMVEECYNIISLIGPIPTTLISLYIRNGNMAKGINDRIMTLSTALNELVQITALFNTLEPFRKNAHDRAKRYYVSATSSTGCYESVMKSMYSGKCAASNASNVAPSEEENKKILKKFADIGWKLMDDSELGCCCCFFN
Procedure, shortened: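 Yeast transcription factors, full-length or as DNA-binding domains, were expressed with a GST tag using PURExpress in vitro transcription/translation. At about 100-200 nM they were applied to universal all-10-mer Agilent arrays, double-stranded by primer extension on fresh or once-stripped slides. Fluorescent anti-GST detected bound protein, and masliner normalised the scans. E-scores for ungapped eight-base words, pooled with reverse complements, came from the Universal PBM Analysis Suite.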

In order of falling “PBM E-score” value:
1. TATTCCGA  0.398
2. AATTTAAT  0.319
3. AATATGAT  0.317
4. TAGTATGA  0.215
5. ACATAGGT  0.192
6. GAGTAAGA  0.191
7. GCAAATGA  0.182
8. GCATCATA  0.181
9. CGCTTTTA  0.165
10. AGACAATA  0.16
11. TACTGCAA  0.158
12. CCACATAC  0.153
13. ACATCCAT  0.144
14. AAATGCAT  0.142
15. AGATTGGA  0.14
16. GACCAACA  0.139
17. CATTATCA  0.138
18. AACTAAGA  0.138
19. ACGATCGA  0.135
20. TCATAGAA  0.134
21. AATTTGCT  0.13
22. CGAAACAC  0.124
23. CGCATAAC  0.115
24. GATTACGC  0.115
25. ACACACCA  0.111
26. AACCACTA  0.108
27. AACATGGG  0.103
28. GAAAGCGA  0.101
29. ATAGAAGA  0.0886
30. CTGTCGGA  0.0869
31. AACTGCTA  0.0866
32. GAAAGTAC  0.0791
33. TACAGTGA  0.0734
34. ACCGCTAA  0.0615
35. TCAGGAAA  0.0531
36. AAGTGATC  0.0429
37. GAACCTAA  0.0406
38. CGAAAGAG  0.0334
39. ATATTGGA  0.0277
40. AGCAAGGC  0.0256
41. GATCTAGA  0.0239
42. GGCATAAC  0.0194
43. AGATGCTA  0.0151
44. ATCACGGC  0.0132
45. ACCTGGAG  0.00754
46. AGAGCGAG  0.00631
47. GTTCCTGA  0.00623
48. CACGATTC  -0.00267
49. GTAGACGA  -0.00753
50. AACTTGCT  -0.0161
51. ATTACGTC  -0.0191
52. ACACTTGA  -0.0204
53. CAAATGCA  -0.0284
54. ATCACGCC  -0.0413
55. GACGATAC  -0.0445
56. CCGTCTCG  -0.0451
57. AGCGAAAG  -0.0481
58. ACACGTGG  -0.0608
59. GCTTAACC  -0.0693
60. TGCAGGCA  -0.0889
61. CTCGGTCA  -0.101
62. AGTGCAGC  -0.103
63. CCTATACC  -0.107
64. TAGTGGGA  -0.109
65. ACAAGTCA  -0.111
66. CCAATCGC  -0.119
67. CAGACAGG  -0.122
68. GCGAGAGC  -0.13
69. ATGACAGG  -0.131
70. AGTGACGC  -0.14
71. AACAAGGC  -0.142
72. GTGCCGGA  -0.158
73. CAGGTGTC  -0.161
74. CTAGAGGC  -0.168
75. GCTCGACA  -0.178
76. GACTTCCC  -0.18
77. AGAGCCCC  -0.188
78. CCTACGCC  -0.194
79. GGCGATCA  -0.195
80. TCCAGCCA  -0.201
81. CCGAGCCA  -0.217
82. GGACGGGA  -0.221
83. ACCCGGGG  -0.237
84. ACCCTTGG  -0.268
85. AGCCTCTG  -0.347
86. CAGGCCTC  -0.38
